# About 2,200 (0.71%) of roughly 310,000 compounds showed an effect of 50% or more. Effects have a minus sign here. The list shows a part of the results.
# Molecular target: human ether-à-go-go-related gene (hERG) potassium channel (human, UniProt Q12809)
# Experiment: primary screen, population patch clamp on CHO cells stably expressing hERG
# Sequence of human ether-à-go-go-related gene (hERG) potassium channel (Q12809 whole entry, looked up): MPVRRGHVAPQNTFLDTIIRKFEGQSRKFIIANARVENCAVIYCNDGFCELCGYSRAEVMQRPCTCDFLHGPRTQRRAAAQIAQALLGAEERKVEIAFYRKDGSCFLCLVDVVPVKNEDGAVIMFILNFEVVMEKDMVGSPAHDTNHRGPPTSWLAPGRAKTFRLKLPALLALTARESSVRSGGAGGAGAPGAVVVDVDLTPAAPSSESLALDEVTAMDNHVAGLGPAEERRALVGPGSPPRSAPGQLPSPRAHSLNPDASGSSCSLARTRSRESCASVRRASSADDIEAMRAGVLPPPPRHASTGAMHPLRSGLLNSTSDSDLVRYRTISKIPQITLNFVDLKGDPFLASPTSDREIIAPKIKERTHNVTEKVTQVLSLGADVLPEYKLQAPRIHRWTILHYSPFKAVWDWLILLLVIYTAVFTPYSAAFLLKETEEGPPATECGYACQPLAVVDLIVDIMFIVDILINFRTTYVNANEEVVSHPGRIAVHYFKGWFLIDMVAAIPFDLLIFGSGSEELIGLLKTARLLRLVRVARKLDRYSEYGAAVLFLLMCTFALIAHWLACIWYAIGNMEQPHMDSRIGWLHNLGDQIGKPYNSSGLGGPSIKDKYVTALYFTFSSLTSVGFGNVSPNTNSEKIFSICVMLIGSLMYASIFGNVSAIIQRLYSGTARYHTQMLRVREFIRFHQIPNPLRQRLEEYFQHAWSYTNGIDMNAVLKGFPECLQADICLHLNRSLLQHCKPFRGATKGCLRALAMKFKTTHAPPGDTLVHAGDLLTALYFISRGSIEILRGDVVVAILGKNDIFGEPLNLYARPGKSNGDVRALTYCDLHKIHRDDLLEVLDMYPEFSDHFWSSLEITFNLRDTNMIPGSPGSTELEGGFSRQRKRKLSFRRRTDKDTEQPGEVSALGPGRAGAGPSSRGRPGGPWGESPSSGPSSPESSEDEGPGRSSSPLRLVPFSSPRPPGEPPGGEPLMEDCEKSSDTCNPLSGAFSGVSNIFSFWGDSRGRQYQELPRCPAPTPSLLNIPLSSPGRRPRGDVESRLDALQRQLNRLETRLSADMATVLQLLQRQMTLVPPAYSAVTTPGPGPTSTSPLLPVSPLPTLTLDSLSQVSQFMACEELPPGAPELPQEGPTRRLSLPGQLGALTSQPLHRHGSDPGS
row,SMILES,"hERG current change (%, negative = inhibition) at 1uM"
1,O=C(NCCCN=C1NS(=O)(=O)c2ccccc21)c1ccc(F)cc1,15%
2,O=C(OCc1nc2scc(-c3ccccc3)c2c(=O)[nH]1)c1cc(Cl)ccc1[N+](=O)[O-],17.1%
3,c1ccc2nc3c(nc2c1)CCCC3,5.84%
4,CCOC(=O)C1=C(C)OC(N)=C(C#N)C1c1cc(SCC)oc1C (stereo not drawn),-0.0227%
5,CC1(C)CNc2cc(N)ccc2S1,17.4%
6,COc1ccc(/C=N/NC(=O)c2cc(-c3cccn3C)n[nH]2)cc1OC,-5.43%
7,O=C1N(C2CCCC2)C[C@@H]2C[C@@H](c3cn[nH]c3-c3ccc(Cl)cc3)N3CCC[C@@]123,-0.707%
8,COCC(=O)OCn1nnc2ccccc2c1=O,2.02%
9,Cc1c(NC(=O)CN2C(=O)NC(C)(c3ccc(Cl)cc3)C2=O)c(=O)n(-c2ccccc2)n1C (stereo not drawn),-8.22%
10,COCCn1cnc2c1c(=O)[nH]c(=O)n2Cc1ccccc1,16.7%
11,CC1CCCCN1C(=O)CSc1nnc(-c2c[nH]c3ccccc23)o1 (stereo not drawn),1.71%
12,Cc1ccc(NC(=S)N2CCN(CCN3C(=O)c4cccc5cccc(c45)C3=O)CC2)cc1,18.8%
13,Br.OCCn1c(-c2ccc3c(c2)OCO3)csc1=Nc1ccccc1,17.3%
14,CC1(S(=O)(=O)[O-])CC(=O)c2ccccc2C1=O.O.[Na+] (stereo not drawn),2.35%
15,O=C(Cn1ncc2c3ccccc3n(Cc3cccc(Cl)c3)c2c1=O)NCC1CCCO1 (stereo not drawn),19.7%
16,CCc1nccn1S(=O)(=O)c1ccc(Br)cc1Br,-8.65%
17,CCC(C(=O)OCC(=O)Nc1cc(OC)ccc1OC)c1ccccc1 (stereo not drawn),16.2%
18,COc1ccc(N(CC(=O)N/N=C(\C)c2ccc(C)cc2)S(=O)(=O)c2ccccc2)cc1,17.9%
19,C=CCn1c(NCCO)nc2sc3c(c2c1=O)CCC3,8.83%
20,O=C(CSc1ccc2c(c1)OCCO2)Nc1cccnc1Cl,10.5%
21,CSc1ncc(/C=C2/C(=O)NC(=O)N(C3CCCCC3)C2=O)cn1,-4.38%
22,O=C(CN1CCN(S(=O)(=O)c2ccc(Cl)cc2)CC1)c1ccc(O)c(O)c1,-24.8%
23,O=C(NCc1ccccn1)C1Nc2ccc(OC(F)(F)F)cc2C2C=CCC12 (stereo not drawn),13.5%

row,SMILES,"hERG current change (%, negative = inhibition) at 1uM"
1,C=CCn1c(SCc2ccc(OC)cc2)nnc1-c1cccnc1,-16%
2,CN(C)CCC(=O)c1ccc(Cl)cc1.Cl,4.49%
3,CCn1cc(C(=O)NCCC(=O)NCCCO)c(=O)c2cc3c(cc21)OCO3,13%
4,COc1ccc(C(=O)N(C)Cc2ccc(C)o2)cc1OC1CCN(C(C)=O)CC1,9.5%
5,CC(C)Oc1ccc(NC(=O)CCC(=O)O)cc1,9.32%
6,C/C=C/c1ccc(OCC(=O)Nc2cc(OC)c(OC)c(OC)c2)c(OC)c1,6.93%
7,NS(=O)(=O)c1ccc(NS(=O)(=O)c2ccc(C3CNC(=O)C3)cc2)cc1 (stereo not drawn),7.74%
8,Cc1cc(NC(=O)CCCN2C(=O)c3cccnc3C2=O)no1,5.85%
9,O=C(NC(=S)Nc1cc([N+](=O)[O-])ccc1Cl)c1ccccc1,0.486%
10,CCOc1cc(C2NC(=O)CCC2[N+](=O)[O-])cc(Br)c1OCC (stereo not drawn),-2.61%
11,CCOc1ccccc1OCC(=O)Nc1ccc2[nH]c(=O)[nH]c2c1,17.6%
12,COCCNC(=O)c1ccc2c(c1)nc(C)n2-c1cccc(Cl)c1,12.2%
13,O=C(Nn1c(SCc2ccccc2F)nc2ccsc2c1=O)c1ccccc1,7.44%
14,CCc1oc(C(=O)O)cc1COC,-4.45%
15,CC(=O)N1c2ccccc2C2(C)C(C1(C)C)C2(Cl)Cl (stereo not drawn),6.19%
16,CC(C)CC(=O)NCCCN1CCN(CCCNC(=O)CC(C)C)CC1,14.5%
17,CC(c1nnc(SCC(=O)NC(=O)NCc2ccco2)n1-c1ccc(Cl)cc1)N(C)C (stereo not drawn),2.72%
18,Cc1cc(OC(C)C(=O)N2CCN(c3ccc(F)cc3)CC2)c2c(C)cc(=O)oc2c1 (stereo not drawn),2.1%
19,CCCc1nc2c([nH]1)c(=O)n(C)c(=O)n2C,18.6%
20,CCc1nn(-c2cc(Cl)ccc2OC)c2c1C(=O)CCC2,-0.087%
21,Cc1cc(C(=O)NNc2ccc(C)c(C)c2)no1,14.6%
22,CC1CN(Cc2nc3c(c(=O)[nH]c(=O)n3C)n2CCN2CCOCC2)CC(C)O1 (stereo not drawn),11.8%
